The text below walks through data of the supplement of paper PMC11417369.

± gives the standard deviation of the averaged measurements. This is one part of the list.

The subject of the assay is PfAP2-G AP2 domain (GST-tagged). Nature of the assay: gcPBM binding intensity (ln(normalized median fluorescence intensity)); higher = stronger DNA binding. The essentials: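 Binding intensity is defined as the maximum Masliner-normalised natural-log median intensity across replicate spots for either probe orientation. It was measured on an Agilent 4 × 180k array of primer-extended double-stranded 36-bp intergenic genomic probes and negative controls, to which GST-tagged P. falciparum DNA-binding domains made in E. coli were applied for 1 h in 1× PBS with 1% milk, 0.2 mg/ml BSA, 0.5% salmon testes DNA and 0.03% Triton X-100. Detection was by Alexa488 anti-GST antibody and scanning at 488 nm.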
As to “ATATAAAAAAATTGCACACATAAATATATACATATA [CACACA_site1218]”, the “gcPBM binding intensity (ln)” value was 10.12 ± 0.064.

For “TATTGTAATATTATATATATCTATTATGTATATAAA [CACACA_negctrl_site454]”, the “gcPBM binding intensity (ln)” value worked out at 9.61 ± 0.13.

For “AATTATATATTAAAAAGTACAAGTTAATATAATATA [XGTACX_site2737]”, the “gcPBM binding intensity (ln)” value is 11.3 ± 0.77.

Turning to “TAATTAAAATTATTTATAAATTAGTATATTTCTATA [CACACA_negctrl_site663]”, the “gcPBM binding intensity (ln)” value was 9.465 ± 0.035.

For “TTATTATTTTATCGTAGTACACCTAAATTATAAAAC [XGTACX_site5251]”, the “gcPBM binding intensity (ln)” value turned out to be 11.4 ± 0.97.

On to ATTAATAATCGAAAGGTGCACTTTGATTTGATAACA, for which the “gcPBM binding intensity (ln)” value came to 10.7 ± 0.8.

Turning to “ATATATTTTTCAAAATGTACAAATAATTAAATACCA [XGTACX_site875]”, the “gcPBM binding intensity (ln)” value was 10.7 ± 0.49.

Take “TAATAAATTATTTTTTATTATTTTAATAACACTTCA [CACACA_negctrl_site3]”: the “gcPBM binding intensity (ln)” value amounted to 9.4 ± 0.2.

For “TTACAAAAATTTTGTTCACACATAAAAATATGTTAC [CACACA_site5740]”, the “gcPBM binding intensity (ln)” value worked out at 10.1 ± 0.2.

On to “GGCAAATTTATTATACCCACATACATACATACATAC [XGTACX_negctrl_site186]”, for which the “gcPBM binding intensity (ln)” value amounted to 10.8 ± 0.62.

Take “AAAATTAAACAAAGTTGTACAAAATAATAATAAAAG [XGTACX_site7515]”: the “gcPBM binding intensity (ln)” value is 11.2 ± 0.62.

Consider “AAATTAATAAAAAATGGTACACAAAATGGATGTATA [XGTACX_site1561]”, for which the “gcPBM binding intensity (ln)” value was 11.3 ± 0.57.

Regarding “TTAACTATGAATACATGTACATGAAAATATTTCAAT [XGTACX_site1069]”, the “gcPBM binding intensity (ln)” value was found to be 11.2 ± 0.68.

As for “ACCCTATAGGTAACTACACACCGCATATTGTTTACT [CACACA_site7436]”, the “gcPBM binding intensity (ln)” value was determined as 10.22 ± 0.049.

Consider “TTTATATTAATTGATGTGCACTGAAATATTTGTCCA [GTGCAC_site9655]”, for which the “gcPBM binding intensity (ln)” value was determined as 10.2 ± 0.25.

Consider “AAATGTGATATAAGTACACACACATATGTATATATA [CACACA_site8539]”, for which the “gcPBM binding intensity (ln)” value was 11.4 ± 0.98.

As to “AACGAAATCATCAAGTGTACTAGTTTATTATTAATA [XGTACX_site6161]”, the “gcPBM binding intensity (ln)” value was determined as 11.3 ± 0.98.

Turning to “AAAAAGGATAAACACACACACACACCGATATATATA [CACACA_site8206]”, the “gcPBM binding intensity (ln)” value is 9.97 ± 0.099.

As for TTATTTTTGTGTAAGGTGCTATATATAATGTTTTTA, the “gcPBM binding intensity (ln)” value came out at 10 ± 0.17.

Take “AATAAATAAATAAATATATATATATATATATATATG [CACACA_negctrl_site899]”: the “gcPBM binding intensity (ln)” value was 9.65 ± 0.19.

“TTTTGTTGATTTATATCTGTAGGGTTTAATATAACA [XGTACX_negctrl_site174]”: the “gcPBM binding intensity (ln)” value was 9.98 ± 0.25.

For “TATGTATATTATATGACACACATTTATATATATATA [CACACA_site1167]”, the “gcPBM binding intensity (ln)” value came to 10.3 ± 0.62.

Take “TATATATCCATGTGTACACACAAAAAAAAATAAAGT [CACACA_site7107]”: the “gcPBM binding intensity (ln)” value stood at 11.7 ± 0.93.

For “AAATATGTTTATATATGTACTTATAATTCAAAATAT [XGTACX_site2167]”, the “gcPBM binding intensity (ln)” value came to 11.2 ± 0.83.

Turning to “TCTATGCGTTTTAATAGTACATATAAAATTTATACA [XGTACX_site6986]”, the “gcPBM binding intensity (ln)” value was 11 ± 0.69.

Regarding “AAAATAAAATAAAACACAAAAAAATAAAACAAAATA [CACACA_negctrl_site16]”, the “gcPBM binding intensity (ln)” value was found to be 9.795 ± 0.035.

As for “CCATGTCACAATTTTTCACACACAAAATTTATATAC [CACACA_site8628]”, the “gcPBM binding intensity (ln)” value worked out at 10.3 ± 0.44.

Take “TAATTAACAAACTATAGTACACAAAATACTTCATAT [XGTACX_site6375]”: the “gcPBM binding intensity (ln)” value came out at 11.2 ± 0.79.

For “ATATACACACATAAGTGTACTTATATTTCATATATA [XGTACX_site8646]”, the “gcPBM binding intensity (ln)” value turned out to be 11.6 ± 0.81.

For the sequence “TTTAAATGAAAAAAAGGTACACAATATTATTCTTAT [XGTACX_site8612]”, the “gcPBM binding intensity (ln)” value was 11.3 ± 0.77.

For “GGATATAACAAACACACACACACATATATATATATT [CACACA_site4141]”, the “gcPBM binding intensity (ln)” value was determined as 9.95 ± 0.042.

As to “AATACATATAATACAACACACAAGTAATATAAACCT [CACACA_site3597]”, the “gcPBM binding intensity (ln)” value came to 9.95 ± 0.042.

Take “AAAAAAAAAAAACACACACACACACTAGTATATAAA [CACACA_site4783]”: the “gcPBM binding intensity (ln)” value is 10.1 ± 0.19.

As to “AAGAAAAAAAAAAATATATATACATATATATATATA [TGCATGCA_negctrl_site485]”, the “gcPBM binding intensity (ln)” value was found to be 9.82 ± 0.57.

In the case of “AATACTTATTATGAAACACACACCAAAACTACATAA [CACACA_site270]”, the “gcPBM binding intensity (ln)” value amounted to 10.3 ± 0.31.

“ATATATATATATTTATGTACATATATTTTTTTTTTT [XGTACX_site8558]”: the “gcPBM binding intensity (ln)” value was determined as 11.2 ± 0.74.

For “AATGTATATATATATATATATATATATATTTATTTA [CACACA_negctrl_site113]”, the “gcPBM binding intensity (ln)” value worked out at 9.51 ± 0.19.

For “AAGAAAATAGAAAATACACACAGCAAACAGAGGAAT [CACACA_site3785]”, the “gcPBM binding intensity (ln)” value was found to be 10.06 ± 0.071.

As for “AAATTTATTATATATACATGCAATCATAAATAATGT [TGCATGCA_site539]”, the “gcPBM binding intensity (ln)” value came to 9.795 ± 0.078.

Take “AATAAATAAATACATCTCAGTATATAAACAAACAAA [CACACA_negctrl_site1604]”: the “gcPBM binding intensity (ln)” value amounted to 9.9 ± 0.057.

As for “AAGCCTTAAAAGGAAAGTACGTATATATATATATAT [XGTACX_site8559]”, the “gcPBM binding intensity (ln)” value is 10.9 ± 0.62.

As for “ATATTTAATTAAAAGAGTACTTAAATAAAATAAATG [XGTACX_site2149]”, the “gcPBM binding intensity (ln)” value was determined as 11.2 ± 0.85.

Take “ATGAAACATGTATATTGTACTCTGGATCAATTTAAT [XGTACX_site6413]”: the “gcPBM binding intensity (ln)” value was determined as 11.1 ± 0.59.

For “ATAATATATGAAAGTGGTACACAAAGGAAAATAAAA [XGTACX_site333]”, the “gcPBM binding intensity (ln)” value was determined as 11.6 ± 0.97.

With “TTATAAATAAAAAATACACACATATATTTATTTATA [CACACA_site6242]”, the “gcPBM binding intensity (ln)” value was found to be 9.77 ± 0.028.

Regarding “TTTTTTTTTTTGTTCACACATATATATATATATATA [CACACA_site5376]”, the “gcPBM binding intensity (ln)” value came out at 10.1 ± 0.33.

Regarding “AATAATAAATCAAACTGTACATATATTTTCAATCTA [XGTACX_site3344]”, the “gcPBM binding intensity (ln)” value came out at 11.2 ± 0.85.

On to “TGTAGTCTGGAGAAAAGTACACAGTATCCGGTAACT [XGTACX_site4934]”, for which the “gcPBM binding intensity (ln)” value was 11.6 ± 0.98.

Consider “TTCTTCTAATCCTTTTATCTCATTAAAAAAATATAA [CACACA_negctrl_site12]”, for which the “gcPBM binding intensity (ln)” value was 9.96 ± 0.27.

“TATACATACACATACACACATACACCCATACACATA [CACACA_site1746]”: the “gcPBM binding intensity (ln)” value came out at 10.3 ± 0.21.

Consider “TATATATATATATATACACACATATATACATATATA [CACACA_site4043]”, for which the “gcPBM binding intensity (ln)” value turned out to be 9.96 ± 0.43.

For the sequence “ATCCTAATATTGAACTGTACCTTATATGTTATTATA [XGTACX_site1014]”, the “gcPBM binding intensity (ln)” value worked out at 11.1 ± 0.67.

“GGTTATATATTTTTTGCACACCAAAAAAGAGAATAT [CACACA_site2731]”: the “gcPBM binding intensity (ln)” value turned out to be 10.3 ± 0.3.

Consider “ACGTGTATTTATTTAGTGCACTTTATATTTTTTCTT [GTGCAC_site9426]”, for which the “gcPBM binding intensity (ln)” value was determined as 10.6 ± 0.4.

With “ATATATATATAATCATCACACATGCAGCCCTGATGA [CACACA_site5500]”, the “gcPBM binding intensity (ln)” value was 9.88 ± 0.2.

In the case of “TATATATTACATACATGTACCCAAAAAAAAAAAAAA [XGTACX_site1168]”, the “gcPBM binding intensity (ln)” value stood at 11.2 ± 1.1.
